Experimental data reported in PubChem BioAssay AID504332 (National Center for Advancing Translational Sciences (NCATS), 2011).
The campaign covered roughly 350,000 compounds. About 31,000 (8.9%) were called active. The inconclusive results got no clear call from the source; some entries with a clear call stand among them for comparison. Calls come from the whole dose curve; as a rule, active = well fitted inhibition curve with a large enough effect; inconclusive = small, poorly fitted or top-dose-only effect; inactive = no such curve, though single readings can be large or run the other way. A potency beside an inconclusive call is a rough fit, not a confirmed value. More than one record can exist for a structure, and the calls need not agree.

The compounds below were run against Histone-lysine N-methyltransferase EHMT2 (Homo sapiens) (UniProt Q96KQ7) (assay: qHTS Assay for Inhibitors of Histone Lysine Methyltransferase G9a). Conditions: G9a H3K9 monomethylation, AlphaScreen, 2 h; activity, negative = inhibition: at 59 µM (top of the series) unless noted.
Method in brief: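 Step 1: enzyme (final 20 nM) with compound, 15 min RT. Step 2: substrate peptide 500 nM and SAM 20 uM, 2 h RT. Step 3: anti-H3K9me1 antibody and AlphaScreen beads, 10 min, then plate read.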
% is set by controls: 0 for no effect and ±100 for the full control effect; potency is the fitted concentration of half-maximal effect; tags give direction and shape of the fitted curve.
Note: nearly all actives have a fitted effect of over 75% in size.

UniProt Q96KQ7, sequence (Q96KQ7 whole entry, looked up): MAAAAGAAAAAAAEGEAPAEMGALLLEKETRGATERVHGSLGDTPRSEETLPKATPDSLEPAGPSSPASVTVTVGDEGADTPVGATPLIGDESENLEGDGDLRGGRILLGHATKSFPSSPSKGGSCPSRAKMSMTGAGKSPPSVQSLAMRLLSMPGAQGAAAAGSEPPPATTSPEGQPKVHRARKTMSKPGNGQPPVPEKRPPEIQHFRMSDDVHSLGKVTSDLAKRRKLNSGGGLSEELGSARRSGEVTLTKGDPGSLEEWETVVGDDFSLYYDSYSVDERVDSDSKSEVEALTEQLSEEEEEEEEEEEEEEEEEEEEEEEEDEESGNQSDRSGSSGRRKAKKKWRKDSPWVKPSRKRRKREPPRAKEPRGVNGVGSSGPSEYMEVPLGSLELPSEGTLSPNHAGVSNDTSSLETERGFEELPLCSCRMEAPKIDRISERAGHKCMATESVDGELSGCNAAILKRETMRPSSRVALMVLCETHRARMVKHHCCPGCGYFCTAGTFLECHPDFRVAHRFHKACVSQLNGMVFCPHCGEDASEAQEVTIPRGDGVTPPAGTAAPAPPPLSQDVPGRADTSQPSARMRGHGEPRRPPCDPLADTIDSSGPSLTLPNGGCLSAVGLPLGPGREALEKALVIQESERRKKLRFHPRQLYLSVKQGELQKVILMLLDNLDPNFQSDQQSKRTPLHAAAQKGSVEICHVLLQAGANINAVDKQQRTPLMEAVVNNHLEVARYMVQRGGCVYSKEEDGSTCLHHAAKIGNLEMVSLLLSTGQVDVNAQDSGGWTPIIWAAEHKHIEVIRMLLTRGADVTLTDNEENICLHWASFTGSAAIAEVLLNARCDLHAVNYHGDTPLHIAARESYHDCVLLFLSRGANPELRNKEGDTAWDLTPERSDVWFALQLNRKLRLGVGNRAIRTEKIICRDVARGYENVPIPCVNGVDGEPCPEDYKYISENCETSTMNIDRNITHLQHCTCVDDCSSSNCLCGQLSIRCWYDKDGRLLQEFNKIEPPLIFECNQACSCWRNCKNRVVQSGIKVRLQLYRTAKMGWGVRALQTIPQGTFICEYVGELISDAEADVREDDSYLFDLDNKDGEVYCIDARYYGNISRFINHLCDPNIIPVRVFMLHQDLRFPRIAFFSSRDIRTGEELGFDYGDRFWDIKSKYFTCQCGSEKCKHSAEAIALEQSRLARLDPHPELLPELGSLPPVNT

Row | SMILES | Potency | activity, negative = inhibition
1 | N#C/C(C(=O)c1ccccc1)=C1/SC=C(N)N1c1ccccc1 | inconclusive: 5.01 µM [inhibitor, single point] | 
2 | Cc1c(NC(=O)c2ccc3c(c2)C(=O)N(CC2CCCO2)C3=O)cccc1C(=O)O (stereo not drawn) | inconclusive: 20 µM [inhibitor, partial curve, poor fit] | 
3 | O=C(Nc1ncccc1O)c1cc2ccccc2o1 | inconclusive: 12.6 µM [inhibitor, partial curve, poor fit] | 
4 | Fc1ccc(NC(=S)NCc2ccccc2)cc1 |  | inactive: 56.9% [at 102 µM]
5 | C/C(CC(=O)Nc1ccc(N(C)C)cc1)=N\NC(=O)Cc1csc(N)n1 | active: 44.7 µM | 
6 | Cc1ccc(OCC(=O)NC2CCCC(C)C2C)c([N+](=O)[O-])n1 (stereo not drawn) | inconclusive: 11.2 µM [inhibitor, single point] | 
7 | Cc1ccc(OCCC(=O)OCC(=O)c2c(N)n(C)c(=O)n(C)c2=O)cc1 |  | inactive: -1.68% [at 0.501 µM]
8 | O=C(Cc1ccc(Cl)cc1)Nc1cccc(C(=O)Nc2ccccc2C(=O)O)c1 | inconclusive: 89.1 µM [inhibitor, single point] | 
9 | Cc1cc(Cl)ccc1NC(=O)CN1C(=O)COc2ccc(S(=O)(=O)Nc3ccccc3)cc21 | inconclusive: 7.08 µM [inhibitor, single point] | 
10 | COc1ccc(NS(=O)(=O)c2ccc(NC(=O)c3ccccn3)cc2)cc1 |  | inactive: -2.8% [at 12.7 µM]
11 | O=C(Nc1nc2n(n1)C(c1ccccc1)C=C(c1ccc(Cl)cc1)N2)c1ccco1 (stereo not drawn) | inconclusive: 20 µM [inhibitor, partial curve, poor fit] | 
12 | COc1cccc(Cn2c(SCc3ccc(C(=O)N4CCCCC4)cc3)nc3ccncc32)c1 |  | inactive: -21.9%
13 | CCOc1ccc(S(=O)(=O)N(C)C)cc1-c1nc2c(C(C)(C)C)nn(C)c2c(=O)[nH]1 | inconclusive: 50.1 µM [inhibitor, partial curve] | 
14 | Cc1ccc2ncccc2c1NC(=S)NC(=O)c1ccccc1 | inconclusive: 44.7 µM [inhibitor, partial curve] | 
15 | O=C(COc1ccc([N+](=O)[O-])cc1)N1CCC(c2nc3ccccc3s2)CC1 | inconclusive: 10 µM [inhibitor, partial curve, poor fit] | 
16 | CCOc1ccc(NC(=S)NNc2ccnc3cc(Cl)ccc23)cc1 | active: 7.08 µM | 
17 | COC(=O)Cn1c2ccc(F)cc2c2nc(C)sc21 | active: 44.7 µM | 
18 | O=C(N/N=C/c1ccc(-c2cccc([N+](=O)[O-])c2)o1)[C@H]1C[C@@H]1c1ccccc1 |  | inactive: 14.6%
19 | O=C(Nc1c(C(=O)O)[nH]c2ccc(F)cc12)c1cccc(C(F)(F)F)c1 | inconclusive: 7.94 µM [inhibitor, full curve, poor fit] | 
20 | O=C(CSc1nc2nn(-c3ccccc3)c(=O)c-2c2n1CCCCC2)Nc1ccccc1[N+](=O)[O-] | inconclusive: 44.7 µM [inhibitor, partial curve, poor fit] | 
21 | CC(=O)c1cccc(NC(=O)c2cc(-c3ccco3)nc3ccccc23)c1 | active: 50.1 µM | 
22 | CC(C)(Oc1ccc(Cl)cc1)C(=O)NCc1ccco1 | inconclusive: 3.55 µM [inhibitor, single point] | 
23 | CN(C)c1ccc(N/C=C/C(=O)c2ccc(F)cc2)cc1 | active: 2.51 µM | 

Row | SMILES | Potency | activity, negative = inhibition
24 | COc1ccc(N=Cc2c(O)cc(C)oc2=O)cc1 | inconclusive: 63.1 µM [inhibitor, partial curve, poor fit] | 
25 | N[C@H](CS)C(=O)O |  | inactive: -0.512%
26 | CCCC1=Nc2cc(C(=O)NCCN3CCOCC3)ccc2Sc2ccc(C)cc21 | inconclusive: 79.4 µM [inhibitor, single point] | 
27 | COc1cc(NC(=O)c2ccc3c(Cl)c4c(nc3c2)CCC4)cc(OC)c1OC | active: 28.2 µM | 
28 | Cc1cc(/C=C2\Cc3ccccc3C2=O)c(C)n1-c1ccccc1 |  | inactive: 10.5%
29 | CN(C)CCCNCCCNC(=O)c1ccncc1 |  | inconclusive: -60.4% [inhibitor]
30 | NC(N)=N/N=C/c1ccc(OCc2ccc(Cl)cc2)cc1 | inconclusive: 50.1 µM [inhibitor, partial curve, poor fit] | 
31 | Cc1cccc(N2CCN(C(=O)C3CCC(CNS(=O)(=O)c4cccs4)CC3)CC2)c1C (stereo not drawn) |  | inactive: -14.1% [at 102 µM]
32 | Cc1ccc(-c2csc3ncnc(SCC(=O)Nc4nnc(C)s4)c23)cc1 |  | inactive: 11.6%
33 | CC(C)(C)S(=O)(=O)c1ccsc1C(=O)O | inconclusive: 3.16 µM [inhibitor, partial curve, poor fit] | 
34 | CCc1cccc(Nc2c([N+](=O)[O-])cc(C(=O)N3CC(=O)Nc4ccccc43)cc2[N+](=O)[O-])c1 | active: 25.1 µM | 
35 | CCC(C)NC(=O)CSc1nc2cc3c(cc2c(=O)n1Cc1ccco1)OCO3 (stereo not drawn) |  | inactive: -1% [at 102 µM]
36 | Oc1ccc(/C=N/n2c(COc3ccccc3)n[nH]c2=S)c(O)c1 | active: 1.78 µM | 
37 | Cn1ncc2c(Nc3ccccc3Cl)nc(Cl)nc21 | inconclusive: 1.41 µM [inhibitor, single point] | 
38 | CN1C(=O)CC(N2CCC(C(N)=O)(N3CCCCC3)CC2)C1=O (stereo not drawn) |  | inactive: -0.369% [at 12.7 µM]
39 | CN(C)C(CNC(C(=O)Nc1ccc([N+](=O)[O-])cc1Br)c1ccccc1)c1ccccc1 (stereo not drawn) | inconclusive: 10 µM [inhibitor, partial curve, poor fit] | 
40 | COC(=O)[C@@]1(Cc2ccc(OC)cc2)[C@H]2c3cc(C(=O)N(C)C)n(CCc4ccc(OC)c(Br)c4)c3C[C@H]2CN1C(=O)c1ccccc1 | active: 39.8 µM | 
41 | O=C(Nc1cc(C(=O)Nc2ccc(S(=O)(=O)O)cc2S(=O)(=O)O)cc(C(=O)Nc2ccc(S(=O)(=O)O)cc2S(=O)(=O)O)c1)Nc1cc(C(=O)Nc2ccc(S(=O)(=O)O)cc2S(=O)(=O)O)cc(C(=O)Nc2ccc(S(=O)(=O)O)cc2S(=O)(=O)O)c1 | active: 0.0708 µM | 
42 | S=c1[nH]nc(-c2ccccn2)n1/N=C/c1ccccc1 | inconclusive: 5.62 µM [inhibitor, full curve, poor fit] | 
43 | O=C(CC(C(=O)O)N1CCOCC1)Nc1ccc(Cl)cc1 (stereo not drawn) | inconclusive: 7.94 µM [inhibitor, partial curve, poor fit] | 
44 | O=C(Nc1nnc(S(=O)(=O)N2CCCCCC2)s1)c1ccccc1F | active: 11.2 µM | 
45 | CCOc1ccc(NC(=O)CN2CCN(CC(=O)Nc3ccccc3OC)CC2)cc1 | active: 44.7 µM | 
46 | NC(=O)c1ccc[n+](CCC[n+]2cccc(C(N)=O)c2)c1 | inconclusive: 89.1 µM [inhibitor, partial curve, poor fit] | 

Row | SMILES | Potency | activity, negative = inhibition
47 | O=C(Nc1ccccc1Cl)NC1(C(=O)NCC2CCCO2)CCCCC1 (stereo not drawn) |  | inactive: 7.46% [at 102 µM]
48 | CCOC(=O)C1CCN(c2cc(C)nc3c(-c4ccccc4OC)c(C)nn23)CC1 |  | inactive: 2.9%
49 | COc1ccc(NCc2nnc(SCC(=O)c3ccc(OC)cc3)n2C)cc1 | inconclusive: 0.0891 µM [inhibitor, full curve, poor fit] | 
50 | COc1cccc(C(=O)NC(=S)Nc2ccc([N+](=O)[O-])cc2C)c1 | inconclusive: 35.5 µM [inhibitor, single point] | 
51 | O=C(c1ccccc1)N1N=C(c2ccccc2)CC1c1ccccc1O (stereo not drawn) | inconclusive: 39.8 µM [inhibitor, partial curve, poor fit] | 
52 | CCOC(=O)/C=C1\CN(Cc2cc(OC)c(OC)c(OC)c2)S(=O)(=O)c2ccc(C(F)(F)F)cc21 | active: 35.5 µM | 
53 | CCCCNc1nc(Oc2ccc(=O)n(-c3ccccc3)n2)nc(N(CC)CC)n1 |  | inactive: -32.3%
54 | CCn1cc(C(=O)NCc2ccc(Cl)cc2)c(=O)c2cc(S(=O)(=O)N3CCOCC3)ccc21 | inconclusive: 0.708 µM [inhibitor, partial curve, poor fit] | 
55 | CC1CC2(CCCCC2)Nc2ccc3ccccc3c21 (stereo not drawn) | inconclusive: 31.6 µM [inhibitor, single point] | 
56 | O=C(Nc1cccc(O)c1)c1ccccc1 |  | inactive: -27.9% [at 102 µM]
57 | CCOc1ccc(CCNC(=O)CS(=O)Cc2nc(-c3ccc(OC)cc3)oc2C)cc1OCC (stereo not drawn) | active: 50.1 µM | 
58 | COCCCn1c(Cc2csc(Nc3ccccc3)n2)nnc1SCC(N)=O | active: 6.31 µM | 
59 | CCC(=O)NC(=S)Nc1ccc(NC(=O)CC)cc1 | inconclusive: 1.12 µM [inhibitor, full curve] | 
60 | O=C(O)C1CCN(c2nc(-c3ccccc3)nc3c2oc2ccccc23)CC1 |  | inactive: -2.61% [at 102 µM]
61 | Cn1nc(-c2ccccc2)c(COC(=O)c2cccc(Cl)c2)c1S(=O)(=O)c1ccccc1 | inconclusive: 89.1 µM [inhibitor, single point] | 
62 | N#CCCN(C(=O)CSc1nc2nc(-c3cccs3)cc(C(F)(F)F)c2c(=O)[nH]1)c1ccccc1 | inconclusive: 79.4 µM [inhibitor, partial curve, poor fit] | 
63 | COc1ccc(N2CCN(C3CCCN(Cc4cccc(OC)c4)C3)CC2)cc1 (stereo not drawn) | inconclusive: 89.1 µM [inhibitor, single point] | 
64 | COc1cc2ccccc2cc1C(=O)NC(=S)Nc1cc(C(=O)O)ccc1C | inconclusive: 89.1 µM [inhibitor, single point] | 
65 | CSCCC(=O)N1CC[C@@H](N2CCN(c3ccccc3F)CC2)[C@H](O)C1 |  | inconclusive: -53% [inhibitor] [at 0.501 µM]
66 | COCCn1c(SCC(=O)N2CCCC2)nnc1C(C)C |  | inactive: -21.7% [at 102 µM]
67 | COc1cccc(OCCNC(=O)CSc2ccc(C(F)(F)F)cc2[N+](=O)[O-])c1 | inconclusive: 22.4 µM [inhibitor, single point] | 
68 | O=C(CSc1nc2c(c(=O)n1-c1ccc(Br)cc1)SCC2)NCc1ccco1 | inconclusive: 1.41 µM [inhibitor, full curve, poor fit] | 
